Where two headings read alike, the source gives them in different places.
What was measured:
L. bulgaricus = details: 24 h, 1 w/v-% carbohydrate
Method: (§1) The prebiotics were dissolved in 10% concentrated stock solutions, sterilized either by filtration (0.2 μm Minisart NML, Sartorius AG, Germany) or by UV-radiation (30 s, 120 mJ/cm^2) (XL-1500 UV Crosslinker, Spectronics Corporation, US) depending on the length of the carbohydrate chains and stored at +4° C. in aerobic conditions. The tested bacterial strains and their growth media used in the cultivation (the medium in parentheses is the medium used in the first pre-cultivation) are shown in Table 2. Bifidobacteria, lactobacilli, and Strep. thermophilus were grown in MRS medium and other bacteria in TSB.
(§2) All cultures were stored at −70° C. in bead vials (Technical Service Consultants, UK). For the subcultures, bacteria were inoculated from two beads to 5 ml of their appropriate growth medium (Table 2). The precultures were grown from frozen stocks for 24-48 h at 37° C. under anaerobic conditions in appropriate media, until they were dim. Then the bacteria were inoculated further to MRS or TSB (Table 2) and incubated for another 24 h at 37° C. These suspensions were used for growth intensity measurements
(§3) Anaerobic growth was measured with an automatic on-line turbidometer (Bioscreen C, Labsystems, Finland), which records kinetic changes in the absorbance of the liquid samples in a multiwell plate. Each well of the plate was filled with 20 μl 10 w/v-% prebiotic solution in aerobic conditions, subsequently 180 μl 1 v/v-% early stationary phase test bacteria in its appropriate culture medium were added anaerobically. The control wells included only 200 μl 1 v/v-% early stationary phase test bacteria or the same medium used for culturing the bacteria in question. The final prebiotic concentration was 1 w/v-%.
(§4) All strains were incubated at 37° C. for 24 h and the absorbance (OD 600 nm) was measured every 30 min. Plates were shaken for 10 s before every measurement. Two different sets of experiments with five replicates were performed for each strain and carbohydrate combination.
(§5) The rate of bacterial growth on a single carbohydrate source was determined by calculating the area under the growth curve (24 h) from the absorbance results automatically processed by the software (BioLink, Version 5.07, Labsystems, UK). The similar analysis was performed by Jaskari et al. Appl. Microbiol. Biotechnol. 49 (1998) 175-181. The area under the growth curve was calculated for each well with the help of symmetric rectangles, which were drawn from absorbance values measured at a consecutive time points. This is illustrated in the FIG. 1.
(§6) All the areas from the measurement period (24 h, measurement in every 30 min) were summed up to get the area under the growth curve for the each well's growth curves. The growth in the control medium (basal growth medium without added carbohydrates) was subtracted from results as baseline growth (abs0). The variation between the parallel results of the each bacteria and prebiotic combination was calculated using the standard error of the mean (SE). The averages of the areas under the growth curve for ten parallel wells were used to calculate the SE as following: […]

B. infantis DSM 20088 = details: Table 6 further experiment, 24 h, 1 w/v-% carbohydrate
Method: as §1, §2, §3, §4, §5, §6

Bact. fragilis = details: Table 10 second experiment, 24 h, 1 w/v-% carbohydrate
Method: as §1, §2, §3, §4, §5, §6

L. acidophilus NCFM 145 = details: 24 h, 1 w/v-% carbohydrate
Method: as §1, §2, §3, §4, §5, §6

[1] = tested on: Bifidobacterium lactis BI-07; details: 24 h, 1 w/v-% carbohydrate
Method: as §1, §2, §3, §4, §5, §6

Salm. typhimurium = details: 24 h, 1 w/v-% carbohydrate
Method: as §1, §2, §3, §4, §5, §6

Strep. thermophilus = details: 24 h, 1 w/v-% carbohydrate
Method: as §1, §2, §3, §4, §5, §6

[2] = tested on: Bifidobacterium lactis HN019 (Howaru); details: 24 h, 1 w/v-% carbohydrate
Method: as §1, §2, §3, §4, §5, §6

Eub. biforme = details: Table 10 second experiment, 24 h, 1 w/v-% carbohydrate
Method: as §1, §2, §3, §4, §5, §6

E. coli O1:57 = details: 24 h, 1 w/v-% carbohydrate
Method: as §1, §2, §3, §4, §5, §6

[3] = tested on: Bifidobacterium longum 913; details: 24 h, 1 w/v-% carbohydrate
Method: as §1, §2, §3, §4, §5, §6

[4] = tested on: Bifidobacterium longum KC-1; details: 24 h, 1 w/v-% carbohydrate
Method: as §1, §2, §3, §4, §5, §6

B. longum DSM 20019 = details: Table 6 further experiment, 24 h, 1 w/v-% carbohydrate
Method: as §1, §2, §3, §4, §5, §6

[5] = tested on: B. adolescentis DSM 20083; details: Table 6 further experiment, 24 h, 1 w/v-% carbohydrate
Method: as §1, §2, §3, §4, §5, §6

[6] = tested on: Bifidobacterium lactis 420; details: 24 h, 1 w/v-% carbohydrate
Method: as §1, §2, §3, §4, §5, §6

L. rhamnosus HN001 = details: 24 h, 1 w/v-% carbohydrate
Method: as §1, §2, §3, §4, §5, §6

[7] = tested on: Bifidobacterium lactis Bb-12; details: 24 h, 1 w/v-% carbohydrate
Method: as §1, §2, §3, §4, §5, §6

L. paracasei Lpc-37 = details: 24 h, 1 w/v-% carbohydrate
Method: as §1, §2, §3, §4, §5, §6

B. breve Bb-03 = details: Table 6 further experiment, 24 h, 1 w/v-% carbohydrate
Method: as §1, §2, §3, §4, §5, §6

Staph. epidermis = details: 24 h, 1 w/v-% carbohydrate
Method: as §1, §2, §3, §4, §5, §6

Bact. vulgatus = details: Table 10 second experiment, 24 h, 1 w/v-% carbohydrate
Method: as §1, §2, §3, §4, §5, §6

[8] = tested on: Bifidobacterium lactis BI-04; details: 24 h, 1 w/v-% carbohydrate
Method: as §1, §2, §3, §4, §5, §6

Staph. aureus = details: 24 h, 1 w/v-% carbohydrate
Method: as §1, §2, §3, §4, §5, §6

Eub. limosum = details: 24 h, 1 w/v-% carbohydrate
Method: as §1, §2, §3, §4, §5, §6

bifidum BB-02 = details: Table 5, 24 h, 1 w/v-% carbohydrate
Method: as §1, §2, §3, §4, §5, §6

[9] = tested on: Bifidobacterium lactis DN 173 010; details: 24 h, 1 w/v-% carbohydrate
Method: as §1, §2, §3, §4, §5, §6

Compound: OC[C@H]1O[C@H](O)[C@H](O)[C@@H](O)[C@@H]1O [Glucose, Alpha-D-Glucose]
- average area under the growth curve without medium (L. bulgaricus; Table 7 first experiment): 716
- average area under the growth curve without medium (L. bulgaricus; Table 8 second experiment): 909
- average area under the growth curve without medium (B. infantis DSM 20088): 800
- average area under the growth curve without medium (Bact. fragilis): 226
- average area under the growth curve without medium (L. acidophilus NCFM 145; Table 7 first experiment, L. acidophilus): 1305
- average area under the growth curve without medium (L. acidophilus NCFM 145; Table 8 second experiment, L. acidophilus NCFM 145): 1099
- average area under the growth curve without medium ([1]; Table 5, lactis BI-07): 933
- average area under the growth curve without medium ([1]; Table 6 further experiment, B. lactis BI-07): 1072
- average area under the growth curve without medium (Salm. typhimurium; Table 9 first experiment, S. typhimurium): 819
- average area under the growth curve without medium (Salm. typhimurium; Table 10 second experiment, Salm. typhimurium): 744
- average area under the growth curve without medium (Strep. thermophilus; Table 7 first experiment, S. thermophilus): 425
- average area under the growth curve without medium (Strep. thermophilus; Table 8 second experiment, Strep. thermophilus): 1066
- average area under the growth curve without medium ([2]; Table 5, lactis Howaru): 978
- average area under the growth curve without medium ([2]; Table 6 further experiment, B. lactis HN019): 1062
- average area under the growth curve without medium (Eub. biforme): 235
- average area under the growth curve without medium (E. coli O1:57; Table 9 first experiment, E. coli O1:57): 701
- average area under the growth curve without medium (E. coli O1:57; Table 10 second experiment, E. coli): 769
- average area under the growth curve without medium ([3]; Table 5, longum 913): 443
- average area under the growth curve without medium ([3]; Table 6 further experiment, B. longum 913): 1317
- average area under the growth curve without medium ([4]; Table 5, longum KC-1): 553
- average area under the growth curve without medium ([4]; Table 6 further experiment, B. longum KC-1): 1194
- average area under the growth curve without medium (B. longum DSM 20019): 1143
- average area under the growth curve without medium [5]: 1028
- average area under the growth curve without medium ([6]; Table 5, lactis 420): 836
- average area under the growth curve without medium ([6]; Table 6 further experiment, B. lactis 420): 994
- average area under the growth curve without medium (L. rhamnosus HN001; Table 7 first experiment, L. rhamnosus): 948
- average area under the growth curve without medium (L. rhamnosus HN001; Table 8 second experiment, L. rhamnosus HN001): 1041
- average area under the growth curve without medium ([7]; Table 5, lactis Bb-12): 495
- average area under the growth curve without medium ([7]; Table 6 further experiment, B. lactis Bb-12): 838
- average area under the growth curve without medium (L. paracasei Lpc-37; Table 7 first experiment, L. paracasei): 761
- average area under the growth curve without medium (L. paracasei Lpc-37; Table 8 second experiment, L. paracasei Lpc-37): 877
- average area under the growth curve without medium (B. breve Bb-03): 561
- average area under the growth curve without medium (Staph. epidermis; Table 9 first experiment, S. epidermis): 497
- average area under the growth curve without medium (Staph. epidermis; Table 10 second experiment, Staph. epidermis): 594
- average area under the growth curve without medium (Bact. vulgatus): 410
- average area under the growth curve without medium ([8]; Table 5, lactis BI-04): 629
- average area under the growth curve without medium ([8]; Table 6 further experiment, B. lactis BI-04): 951
- average area under the growth curve without medium (Staph. aureus; Table 9 first experiment, S. aureus): 500
- average area under the growth curve without medium (Staph. aureus; Table 10 second experiment, Staph. aureus): 247
- average area under the growth curve without medium (Eub. limosum; Table 9 first experiment, E. limosum): 131
- average area under the growth curve without medium (Eub. limosum; Table 10 second experiment, Eub. limosum): 677
- average area under the growth curve without medium (bifidum BB-02): 512
- average area under the growth curve without medium ([9]; Table 5, lactis Danone): 397
- average area under the growth curve without medium ([9]; Table 6 further experiment, B. lactis DN173010): 772

Source: patent US20100092429A1, “Composition” (Danisco A/S, priority 2006, published 2010)
